This is one part of the list.

The assay relates to PfHDP1 homeodomain (GST-tagged). Briefly: gcPBM binding intensity (ln(normalized median fluorescence intensity)); higher = stronger DNA binding. The method in brief: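 DNA-binding domains from P. falciparum, fused to GST and produced in E. coli, were put on an Agilent 4 × 180k double-stranded probe array for 1 h in 1× PBS holding 1% milk, 0.2 mg/ml BSA, 0.5% salmon testes DNA and 0.03% Triton X-100. Probes were primer-extended, 36 bp long and drawn from intergenic genomic regions, with negative controls included. After Alexa488 anti-GST antibody detection and a 488 nm scan, binding intensity was set as the highest Masliner-normalised natural-log median intensity across replicate spots of either probe orientation.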
Consider “TAAAATCAATGTTCTTGTACTTAAAATGTTTGTTCT [XGTACX_site5490]”, for which the “gcPBM binding intensity (ln)” value is 6.15.

On to “ATATATCTATATAGAAATGTATATATATATATGTGT [TGCATGCA_negctrl_site349]”, for which the “gcPBM binding intensity (ln)” value came to 6.57.

Regarding “TATTATTCTACTATTATATTCTATATTATTTATAGT [CACACA_negctrl_site499]”, the “gcPBM binding intensity (ln)” value stood at 6.31.

“AAAATTAAATTATTTACACACAATATTAAAATATTT [CACACA_site3244]”: the “gcPBM binding intensity (ln)” value stood at 6.5.

For the sequence “AGTATAAAATTTGGTTGTACATTTTTAAAAAAATTA [XGTACX_site7519]”, the “gcPBM binding intensity (ln)” value was determined as 6.03.

Consider “TCAAAGGAATTTTTATGTACATATAAACTTTATTCT [XGTACX_site3432]”, for which the “gcPBM binding intensity (ln)” value came out at 6.39.

For “AAAAAAAAAAAAAAATGTACATATATATTTATATAT [XGTACX_site229]”, the “gcPBM binding intensity (ln)” value came out at 6.25.

In the case of “AAAAGTTGTATTTGCACACATAAAAAAAAGATATTA [CACACA_site3840]”, the “gcPBM binding intensity (ln)” value turned out to be 10.3.

For “AACCCCAAGCCGTACTGTACATATATTTTTATTTTA [XGTACX_site142]”, the “gcPBM binding intensity (ln)” value was 6.9.

For the sequence “AAATTCAAACAAATTACACACATTTTTTTTTAATTT [CACACA_site3596]”, the “gcPBM binding intensity (ln)” value is 6.85.

Consider “ACTTTAAAAAGATTCACACAAAATATATAAAAATAT [CACACA_site5334]”, for which the “gcPBM binding intensity (ln)” value was 6.25.

For the sequence “ATATCAATTTTTGGTGGTACGTAGGAAGTTTCAGAA [XGTACX_site6881]”, the “gcPBM binding intensity (ln)” value was 6.92.

On to “TTTTTTTTTTTTTATACACACATTAAAATAAAAAAG [CACACA_site3946]”, for which the “gcPBM binding intensity (ln)” value was found to be 6.74.

Regarding “CTCTTCCTTAATTTTTGTACTTAAAATTTTTTTTTT [XGTACX_site1628]”, the “gcPBM binding intensity (ln)” value came out at 7.01.

Consider “AAAGAAAAAAAAAAAACACACAAAAAAAATCAAAAT [CACACA_site2871]”, for which the “gcPBM binding intensity (ln)” value was determined as 6.54.

For the sequence “AACATATACTGTTTATGTACACATTGTTATATTAAT [XGTACX_site4276]”, the “gcPBM binding intensity (ln)” value came to 6.4.

For “ATATAATTTAATTTCTGTACATAAGAGAAAAAACAA [XGTACX_site4865]”, the “gcPBM binding intensity (ln)” value is 6.91.

Consider “TTATGCAAAAATAAATCAATATGTTGATATGTAAAT [GTGCAC_negctrl_site128]”, for which the “gcPBM binding intensity (ln)” value turned out to be 6.75.

Turning to “TACATTTTATGCATTTGTACACAAATAAATAAATAA [XGTACX_site2652]”, the “gcPBM binding intensity (ln)” value was 6.41.

As for “CATAATATTAAATCAGTGCAAATATACAGAATAAAT [GTGCAC_site9786]”, the “gcPBM binding intensity (ln)” value came to 9.8.

Turning to “AAATGAAGATTTAAATGTACGAGAGGGTATACAAAT [XGTACX_site5075]”, the “gcPBM binding intensity (ln)” value is 7.05.

On to “GACTTCTCCATATACACACACCAACAAATATAAAAA [CACACA_site7331]”, for which the “gcPBM binding intensity (ln)” value was 7.53.

As for “AAATTTATAAATTAAAGTACATATTTCTTGAATATT [XGTACX_site859]”, the “gcPBM binding intensity (ln)” value is 6.16.

Consider “TATAGATACACTTTGTGTACATAAAAATTGTATTAA [XGTACX_site7137]”, for which the “gcPBM binding intensity (ln)” value is 6.47.

Take “TATTAAATTATATAGACACACATTATGTATATATAT [CACACA_site345]”: the “gcPBM binding intensity (ln)” value is 6.63.

For the sequence “TACGAAAGGTAATATTGTACATTACAAAATTTTATA [XGTACX_site5512]”, the “gcPBM binding intensity (ln)” value stood at 6.43.

In the case of “TATGTATAAATATTAACACACAAAAAAAAAAAAAAA [CACACA_site6938]”, the “gcPBM binding intensity (ln)” value is 6.32.

Consider “AATAAGCAGAAACACACACACAAAAAAAAAAAAAAA [CACACA_site719]”, for which the “gcPBM binding intensity (ln)” value came out at 6.33.

As to “GTTTGATAACACCTACAAACTCTTTTTTTTTTTTTT [CACACA_negctrl_site1134]”, the “gcPBM binding intensity (ln)” value came out at 6.19.

As to “ATATAAACAAAGCAGTGCACGTAAACAAAACATATA [CACACA_negctrl_site1076]”, the “gcPBM binding intensity (ln)” value came to 9.55.

On to “TCGTTATCCATCTTCACACATATATATAGTAATATA [CACACA_site5492]”, for which the “gcPBM binding intensity (ln)” value worked out at 7.37.

Consider “TACTGTTTAAAATATACACACATAATCAAAAAAAAA [CACACA_site2510]”, for which the “gcPBM binding intensity (ln)” value amounted to 6.39.

In the case of “AAAAAAAAAATTGAAAGTACACAAATGGGGTATTAT [XGTACX_site3960]”, the “gcPBM binding intensity (ln)” value turned out to be 6.6.

As to “TATATATTTACATATTGTACAATATAAAAATAATTA [XGTACX_site19]”, the “gcPBM binding intensity (ln)” value was determined as 6.29.

On to TATATATATCTTTTGGTGCATATTTCGAATATATGT, for which the “gcPBM binding intensity (ln)” value is 9.67.

On to “CTATACAATAAAAATTGTACATACATATATGTTATA [XGTACX_site5309]”, for which the “gcPBM binding intensity (ln)” value was found to be 6.32.

Regarding “AATTTTTCTTTTTTTTGTACAGAATATATATTTTAT [XGTACX_site1419]”, the “gcPBM binding intensity (ln)” value amounted to 6.61.

“ATATTTATGTAATGTTTGATTTTTTTTTTATGTGTG [CACACA_negctrl_site1422]”: the “gcPBM binding intensity (ln)” value was found to be 6.28.

“ACATATACATACATATGTACATATACATAAATATAT [XGTACX_site1285]”: the “gcPBM binding intensity (ln)” value is 6.73.

Consider “TAAATAATCATAGTTCTACACACCTATATTGCAAAA [CACACA_site8190]”, for which the “gcPBM binding intensity (ln)” value is 7.55.

Regarding “AAAAAAAAAAATTCCAGTACACACAATAATACTAAA [XGTACX_site5930]”, the “gcPBM binding intensity (ln)” value was 6.39.

In the case of “ATATATATAATATGATGTACTATTTTGATAAAAAAT [XGTACX_site3975]”, the “gcPBM binding intensity (ln)” value is 6.46.

In the case of “GTAAGAAACGGACACACACACATATATATATATATA [CACACA_site4593]”, the “gcPBM binding intensity (ln)” value came out at 9.38.

For “AATATATTGCACCATTGGACCTGAATAATTCTTCCA [CACACA_negctrl_site1071]”, the “gcPBM binding intensity (ln)” value was 11.4.

Values taken from the supplement of paper PMC11417369.
